Measured values from US20200347135A1 (published 2020).
Read-outs that look alike come from different tables or passages of the source.

Legend:
human PD-1-His antigen [1] = biological target: T1, human PD-1-His antigen (UniProt Q15116 fragment); assay: SPR
[2] = biological target: T2, human PD-1 expressed on cells (UniProt Q15116 25-288); assay: FACS ligand competition (PD-L1 Fc)
[3] = biological target: T2, human PD-1 expressed on cells; assay: FACS binding
[4] = biological target: T2, human PD-1 expressed on cells; assay: FACS binding; remark: listed apart in the source
human PD-1-His antigen [5] = biological target: T1, human PD-1-His antigen; assay: SPR; remark: listed apart in the source
T1 sequence (Q15116 25-170): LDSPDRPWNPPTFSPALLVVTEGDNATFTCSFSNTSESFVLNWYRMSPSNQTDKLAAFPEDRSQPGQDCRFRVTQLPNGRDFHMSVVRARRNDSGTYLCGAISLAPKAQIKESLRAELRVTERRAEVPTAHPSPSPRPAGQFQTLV

[6] = biological target: T2, human PD-1 expressed on cells; assay: FACS ligand competition (PD-L1-Fc)

T2 sequence (Q15116 25-288): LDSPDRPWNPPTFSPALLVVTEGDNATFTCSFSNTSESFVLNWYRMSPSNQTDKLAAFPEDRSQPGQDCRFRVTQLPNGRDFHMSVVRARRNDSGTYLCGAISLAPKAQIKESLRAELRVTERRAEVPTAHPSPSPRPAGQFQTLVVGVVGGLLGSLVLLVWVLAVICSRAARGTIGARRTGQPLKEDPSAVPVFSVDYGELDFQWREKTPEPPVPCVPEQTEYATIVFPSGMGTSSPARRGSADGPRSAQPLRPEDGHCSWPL

B1: AS15899_HCAb (Fc fusion)
heavy: QVQLVESGGGSVQAGGSLRLSCAASGYTAGSLCMGWFRQAPGKEREGVAAIYTGGGSTYYADSVKGRFTISQDNAKNTVYLQMNSLKPEDTAQYYCGAGSREDYCDRGYIYDHWGQGTQVTVSS[human IgG4 Fc with S228P (EU numbers) skipped]
Human PD-1-His antigen [1]
  Kd: 3.8 nM
[2]
  IC50: 0.91 nM
[3]
  EC50: 1.48 nM

B2: AS15193VH8M1_HCAb (Fc fusion)
heavy: EVQLVESGGGLVQPGGSLRLSCAVSGNIYNRNFMGWFRQAPGKGLEGVSAIYTGTSRTYYADSVKGRFTISRDNSKNTVYLQMNSLRAEDTAVYYCAADLREGFWDTGVWNTWGQGTLVTVSS[human IgG4 Fc with S228P (EU numbers) skipped]
[4]
  EC50: 1.92 nM
Human PD-1-His antigen [5]
  Kd: 20 nM
[6]
  IC50: 1.96 nM

B3: AS15193VH8_HCAb (Fc fusion)
heavy: EVQLVESGGGLVQPGGSLRLSCAVSGNIYNRNFMGWFRQAPGKGLEGVSAIYTGTSRTYYADSVKGRFTISRDNSKNTVYLQMNSLRAEDTAVYYCAADLRDGFWDTGVWNTWGQGTLVTVSS[human IgG4 Fc with S228P (EU numbers) skipped]
[4]
  EC50: 1.78 nM
Human PD-1-His antigen [5]
  Kd: 9.7 nM
[6]
  IC50: 1.64 nM

B4: AS15152_HCAb (Fc fusion)
heavy: QMQLVESGGGSVQAGGSLRLSCAVSGYIYNRNFMGWFRQAPGKEREGVAAIYTGGPYTYYTDSVQGRFTISQDNTKNTVYLQMNSLKPEDTAMYYCVSDLSDGTWDQGRWNYWGQGTQVTVSS[human IgG4 Fc with S228P (EU numbers) skipped]
Human PD-1-His antigen [1]
  Kd: 18.3 nM

B5: AS15193VH18M1_HCAb (Fc fusion)
heavy: EVQLVESGGGLVQPGGSLRLSCAVSGNIYNRNFMGWFRQAPGKGREGVSAIYTGTSRTYYADSVKGRFTISRDNAKNTVYLQMNSLRPEDTAVYYCAADLREGFWDTGVWNTWGQGTLVTVSS[human IgG4 Fc with S228P (EU numbers) skipped]
[4]
  EC50: 1.8 nM
Human PD-1-His antigen [5]
  Kd: 15 nM
[6]
  IC50: 1.75 nM

B6: AS15881_HCAb (Fc fusion)
heavy: QVQLVESGGGSVQAGGSLRLSCAASGFTDSSYCGAWFRQVPGKEREGVAIIDRYGGTMYKDSVKGRFTISKDTAKNILYLQMNSLKLEDTAMYYCAAAEYRGSSCDAESGYWGQGTQVTVSS[human IgG4 Fc with S228P (EU numbers) skipped]
Human PD-1-His antigen [1]
  Kd: 3.3 nM
[2]
  IC50: 1.66 nM
[3]
  EC50: 2.18 nM

B7: AS15193_HCAb (Fc fusion)
heavy: QIQLVESGGGSAQAGGSLRLSCVVSGNIYNRNFMGWFRQAPGKVREGVAAIYTGTSRTYYADSVKGRFTISQDNAKNTVYLQMNSLKPEDTAMYYCAADLRDGFWDTGVWNTWGQGTQVTVSS[human IgG4 Fc with S228P (EU numbers) skipped]
Human PD-1-His antigen [1]
  Kd: 0.951 nM
[4]
  EC50: 1.26 nM
Human PD-1-His antigen [5]
  Kd: 4 nM
[6]
  IC50: 0.79 nM
[2]
  IC50: 0.79 nM
[3]
  EC50: 1.26 nM

B8: AS15156_HCAb (Fc fusion)
heavy: QVQLVESGGGSAQAGGSLRLSCAVSGYIYNRNFMGWFRQVPGKVREGVAAIYTGTERTYYADSVKGRFTISQDNAKNTVYLQMNSLKPEDTAMYYCVADLRDGTWDTGVWNTWGQGTQVTVSS[human IgG4 Fc with S228P (EU numbers) skipped]
Human PD-1-His antigen [1]
  Kd: 2.67 nM
[2]
  IC50: 2.2 nM
[3]
  EC50: 4.91 nM

B9: AS15892_HCAb (Fc fusion)
heavy: QIQLVESGGGSVQAGGSLRLSCAASGFTDSSYCGAWFRQVPGKEREGVAIIDRYGGTMYKDSVKGRFTISKDTAKNILYLQMNSLKLEDTAMYYCAAAEYRGSSCDAESGYWGQGTQVTVSS[human IgG4 Fc with S228P (EU numbers) skipped]
Human PD-1-His antigen [1]
  Kd: 4 nM

B10: AS15883_HCAb (Fc fusion)
heavy: QVHLMESGGGSVQAGGSLTLSCAASVFTDSNYCMAWFRQVPGKEREGVAIIDRYGGTMYKDSVKGRFTISKDTAKNILYLQMNSLKLEDTAMYYCAAAGYRGSSCDADSGYWGQGTQVTVSS[human IgG4 Fc with S228P (EU numbers) skipped]
Human PD-1-His antigen [1]
  Kd: 3.9 nM

B11: AS15193VH18_HCAb (Fc fusion)
heavy: EVQLVESGGGLVQPGGSLRLSCAVSGNIYNRNFMGWFRQAPGKGREGVSAIYTGTSRTYYADSVKGRFTISRDNAKNTVYLQMNSLRPEDTAVYYCAADLRDGFWDTGVWNTWGQGTLVTVSS[human IgG4 Fc with S228P (EU numbers) skipped]
[4]
  EC50: 1.61 nM
Human PD-1-His antigen [5]
  Kd: 7 nM
[6]
  IC50: 1.57 nM

B12: AS06962_HCAb (Fc fusion)
heavy: QVHLVDSGGGLVQPGGSLRLSCAASGSITSRNTMGWYRQVPGKQRELVALIATFVTHYADSVKGRFTISRDNARKMVFLEMNSLQPEDTGAYYCYVDVSPYWGRGTQVTVSS[human IgG4 Fc with S228P (EU numbers) skipped]
Human PD-1-His antigen [1]
  Kd: 39 nM

B13: AS25170_HCAb (Fc fusion)
heavy: QVKLVESGGGLVQSGGSLRLSCAVSGSGYSYSRGCFAWFQQRPGKEREGVAIINMDGHTMYSDLAQGRFIISQDKAKNTLYLQMNSLKPDDTAMYYCAYDRDQCYVLRDRLRLPDTFNDWGQGTQVTVSS[human IgG4 Fc with S228P (EU numbers) skipped]
Human PD-1-His antigen [1]
  Kd: 9.8 nM
[2]
  IC50: 3.01 nM
[3]
  EC50: 7.2 nM
